Here are results for one molecule from PubChem BioAssay (NCI).

The test system of one experiment is CAKI-1 renal. As to the kind of experiment: inhibition of tumour cell growth, NCI panel, 48 h.
For another experiment, the system named is CCRF-CEM leukemia. As to the kind of experiment: inhibition of tumour cell growth, NCI panel, 48 h.

Each structure is given as a SMILES string.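 Values below derive from 48-hour exposures of cells grown in 96-well plates, with endpoints linearly interpolated between the two concentrations bracketing the appropriate inhibition level. TGI is the concentration that stops growth completely.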 A number of entries come with more than one value. Only these are listed. The source may hold further records. Records of one sample usually come from different ranges of test concentrations, which the source does not state; a value can be the end of its range.

For the molecule `CN1CCN(Cc2ccc(NC(=O)c3cncc(C#Cc4cnc5ccc(NC6CCOCC6)nn45)c3)cc2C(F)(F)F)CC1`, the TGI in the experiment on CAKI-1 renal was 5.35 µM and 246 nM; in the experiment on CCRF-CEM leukemia, 4.26 µM and 396 nM.
